Our source for the binding signal values is article PMC12136788.

The list shows a part of the results.

To fix the notation:
T1: UNK ZnF1-3 (human, UniProt Q9C0B0 31-174)
T1 sequence: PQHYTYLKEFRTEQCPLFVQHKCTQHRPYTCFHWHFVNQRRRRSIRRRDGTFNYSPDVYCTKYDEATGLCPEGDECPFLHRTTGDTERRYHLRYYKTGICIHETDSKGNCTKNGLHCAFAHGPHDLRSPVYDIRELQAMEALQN

B1: chr9:95013113:95013114:-_ENSG00000196305_ENST00000443024|hu_hu|hu_hu_hu_mus_False|1_48 (ssRNA)
RNA: GGGAGUUCUACAGUCCGACGAUCCUCAGUCAGAAAGGGCGUGUAAGGGGCCAUCAGUCUGCACAGAGAAAGCAGGACACUGAACAGGGUUUCUAGGGCCAUGACACAGUCUUCCACCCCACUCUCACCCUUUAACCUUCUGCGCAACAGAGGAUUGAGCAUCA
B2: chr16:94664741:94664742:+_ENSMUSG00000040785_ENSMUST00000117648|mus_hu|mus_mus_mus_hu_False|28_108 (ssRNA)
RNA: GGGAGUUCUACAGUCCGACGAUCUGGCAUGGAUCUUGGUAGCUGAUAUUCAGGAGAAAGGCUGGCCAAGGGUGUAUAUAUGCUGGUGUACUGGGGCAAACCUGGUACCAUGUUAAUGUAUGCUGGCGGUGUCUGGGUGAUAUCCAACAGAGGAUUGAGCAUCA
B3: chr11:46405157:46405158:+_ENSG00000110492_ENST00000395566|hu_hu|hu_hu_hu_mus_False|68_108 (ssRNA)
RNA: GGGAGUUCUACAGUCCGACGAUCCCCUUAGGGGUGGGGGCACUUGGUGUGGGCGUGAGAGGACAGGAUGAUUGAUUAGAGCUGACAGGAAGACAAAAGGCACUGGUGGGUUAUAUCUUGGGCCUGUGGGAGAGGAGGGCUCCGCAACAGAGGAUUGAGCAUCA
B4: chr17:66251843:66251844:+_ENSG00000196704_ENST00000359783|hu_hu|motif|central (ssRNA)
RNA: GGGAGUUCUACAGUCCGACGAUCAAAUAUGUGUCCGAUCUCAUGGGUUAAAGUCUUACAGGAUCGAAGUAGUAAAACACGGGUUAUUUCUGGAAUAUAAUAGUUGUCGAAAAUUGAAUAGUCACUUGAAGAUGUUUUCUUGAGCAACAGAGGAUUGAGCAUCA
B5: chr11:20128097:20128098:-_ENSMUSG00000044066_ENSMUST00000050611|mus_hu|FALSE|FALSE (ssRNA)
RNA: GGGAGUUCUACAGUCCGACGAUCCCAACUCUAGGUUUUCAAGAAUGUUUUACAUACAGGUUUAUAAUUGACAAUUAUUUGCUAGAGUGGUUUUUCCCUUUUAAAGUCUCAGUGUGUAUGGAACUAAGAUGAUUAAUAUGGCAACAACAGAGGAUUGAGCAUCA
B6: 93515602_93521466_3588_CDS_ENSG00000173575_ENST00000394196|human|control|control (ssRNA)
RNA: GGGAGUUCUACAGUCCGACGAUCGUCCUCAGACCCAUCUGCAUUGAAGUGGUCCAGUGCCUGUUUUCGGAUUUCUCCCUUGAUGGAACCAUCCAGACGCUGGAAAGGAUAGUGUUUAAUAGUUAGGUAUUCAGCCAGGAUAUCCAACAGAGGAUUGAGCAUCA
B7: chr4:108167797:108167798:+_ENSMUSG00000034610_ENSMUST00000043368|mus_mus|FALSE|FALSE (ssRNA)
RNA: GGGAGUUCUACAGUCCGACGAUCCUCCACAAUGUCCUGGCGGAUUCUGAGGUCAUCAUCUGUUAUUCCUUGUUCUUUUGCUAACUCAACAACUGCAACACUUAAAGCAGCCAAGUGAGCAGAGGAAGGAGAUGGAAGAGACCGCAACAGAGGAUUGAGCAUCA
B8: 76620712_76620832_132_CDS_ENSG00000089916_ENST00000261530|human|control|control (ssRNA)
RNA: GGGAGUUCUACAGUCCGACGAUCGCGUUUCCGAAGCUGCCGCCUCUGCUGUCGGGGGCUCAGCGCCAUCUCCUCCCACAGUUCACCAAGCUUAUUCUGCUCAGAUGUCUGCUCCAAGGCUGAGGCUAAGUCGUGUACCAGCUCCAACAGAGGAUUGAGCAUCA
B9: chr10:34671499:34671500:-_ENSG00000148498_ENST00000340077|hu_mus|motif|central (ssRNA)
RNA: GGGAGUUCUACAGUCCGACGAUCGAUGCUGAAUCCCAGUCCUUCUGUACCUUUCUUAAGCUGGAUGUUGAGCCUCUUGCCGGCUUUCUUCGUGUUGUACACACUGCCUACGUUGGUACUAAGCACACUGGGUGGAGCCAAGGCCAACAGAGGAUUGAGCAUCA
B10: chr9:136895555:136895556:-_ENSG00000169925_ENST00000303407|hu_mus|motif|central (ssRNA)
RNA: GGGAGUUCUACAGUCCGACGAUCACCGUUUUUUUUUUUUUUUUACUCUGUGGUGUUGAGGCCGGCAUUGCAAAAAACAAGCGGAACGGCUUACAAUGGACUCAUUUUCAGUAACUGACAUUUACAGGAAUAUACUAGAAACGGCAACAGAGGAUUGAGCAUCA
B11: chr14:66974463:66974464:+_ENSMUSG00000022044_ENSMUST00000074523|mus_hu|mus_mus_mus_hu_False|58_108 (ssRNA)
RNA: GGGAGUUCUACAGUCCGACGAUCUUGUAGGAUGAUUUAUUCAGGGGAUCGGCCAGGAAGCAGGAGCAGAACAAGGACACUAGUGGGAGCUCCUUCAUCUUCUCUUUGUAGGCAGCAAGGGUCAUGUUUCUGGGAUCUGGUGGCCAACAGAGGAUUGAGCAUCA
B12: chr10:8116392:8116393:+_ENSG00000107485_ENST00000346208|hu_hu|FALSE|FALSE (ssRNA)
RNA: GGGAGUUCUACAGUCCGACGAUCACUGUGGCCAGUGAAAGGAAACAAAACUGGCAGUUUGUCCAUUUGAAUAUCAGACCUAGUUUCUUCUUAAUUUCCACACUAUUUCUCCCAUAUUCCUUAAACUUCUUGGCAUCCUUCAUGCAACAGAGGAUUGAGCAUCA
B13: chr6:31458560:31458561:+_ENSMUSG00000025609_ENSMUST00000026699|mus_hu|FALSE|FALSE (ssRNA)
RNA: GGGAGUUCUACAGUCCGACGAUCUAAACGGGAGCCCUGGUUCUGCAGAGCUCUUCUGGACGAAAGAGUCAUUUUCUCCUAAAAUUGCUAUUAAGAUAUUAUUCACUACUAGAUCCCUCCUGCUGGUCACUUUUAGAAUGGCUCCAACAGAGGAUUGAGCAUCA
B14: chr5:4754414:4754415:-_ENSMUSG00000044674_ENSMUST00000054294|mus_hu|motif|central (ssRNA)
RNA: GGGAGUUCUACAGUCCGACGAUCGUAAUAAAAUGUUGAAAGUGUACAACUUUUACAUUUUAAAGUUUCUGAUAUAUGUCGGGUUAUUUGAUUAAAAAUAAGAAAAUAGCACUUCAUUUUGAGGAAGUCCAUGACACUGAAAUACAACAGAGGAUUGAGCAUCA

For the assay, the target named is T1, UNK ZnF1-3. Kind of assay: nsRBNS (natural sequence RNA bind-n-seq); RBNS binding buffer (assumed for nsRBNS): 25 mM Tris pH 7.5, 150 mM KCl, 3 mM MgCl2, 0.01% Triton X-100, 500 ug/ml BSA, 20 U/ml SUPERase-In, 4 C; UNK is unkempt and MSI1 is Musashi-1; names of the RNAs are library labels; protein concentration not given here; high values mean tight binding.
The molecule B1 had a binding signal of 0.937 enrichment R.
For B2, the binding signal was 1.02 enrichment R.
With B3 the figure was 2.51 enrichment R; with B4, 1.55 enrichment R.
In turn, B5 came in with a binding signal of 0.811 enrichment R.
B6: the binding signal was found to be 0.586 enrichment R.
For B7, the binding signal was found to be 1.05 enrichment R.
B8 yielded a binding signal of 0.847 enrichment R.
The figure for B9 is 0.701 enrichment R.
Consider B10, for which the binding signal came out at 0.88 enrichment R.
With B11 the figure was 2.66 enrichment R; with B12, 0.908 enrichment R; with B13, 0.654 enrichment R.
The figure for B14 is 0.438 enrichment R.
